This is one part of the list. At the low end of the ranking the order means little.

37 sequences from article PMC5892938 can be followed below.

For this experiment, the target named is GST-SBP-SLBP (stem-loop binding protein) (UniProt Q14493). Put plainly: targeted RNA Bind-n-Seq.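 Note: DESeq read counts versus GST-SBP nonspecific binding control pulldown.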 Conditions: RBNS binding buffer: 25 mM Tris pH 7.5, 150 mM KCl, 3 mM MgCl2, 0.1% Tween, 0.5 mg/mL BSA, 1 mM DTT; 27 nM protein, 750 pM RNA pool; temperature not stated; high values mean tight binding.
On to “GGUCACGUCUCAAUCAACUCAACUCCCAGGGAAACCCCUGGUUAACUCAACAGCUCGCAGUCAAG”, for which the binding signal (log2 fold change) was -0.196.

For the sequence “GGUCACGUCUCAAUCAACUCUAUCUCCAGGGAAAGCCCUGGUAUAUUCAACAGCUCGCAGUCAAG”, the binding signal (log2 fold change) turned out to be 0.00657. With “GGUCACGUCUCAAUCAACUCAAUCCCAGGAGUUUUCUCCUGUUAACUCAACAGCUCGCAGUCAAG” the figure was 0.104.

Regarding “GGUCACGUCUCAAUCAACUCUUUCCCCAGGGAAAACCCUGGCUAUUUCAACAGCUCGCAGUCAAG”, the binding signal (log2 fold change) is -0.0232. Take “GGUCACGUCUCAAUCAACUCAAUUCCAGGAGUUUACUCCUGUUUUUUCAACAGCUCGCAGUCAAG”: the binding signal (log2 fold change) was -0.0915.

Regarding “GGUCACGUCUCAAUCAACUCUAUCUCAGGAGUUUUCUCCUGCUUUCUCAACAGCUCGCAGUCAAG”, the binding signal (log2 fold change) came to 0.0177. Consider “GGUCACGUCUCAAUCAACUCAAUGUCAGGAGUUUUCUCCUGCUUUCUCAACAGCUCGCAGUCAAG”, for which the binding signal (log2 fold change) stood at 0.104. Turning to “GGUCACGUCUCAAUCAACUCUAUCUCCAGGGAAAACCCUGGCUUACUCAACAGCUCGCAGUCAAG”, the binding signal (log2 fold change) was determined as 0.0425. For “GGUCACGUCUCAAUCAACUCUAUCGCAGGAGUUUACUCCUGGUAAUUCAACAGCUCGCAGUCAAG”, the binding signal (log2 fold change) worked out at 0.0219. For “GGUCACGUCUCAAUCAACUCAUCUUCAGGAGUUUCCUCCUGCAUUCUCAACAGCUCGCAGUCAAG”, the binding signal (log2 fold change) amounted to 0.152. Consider “GGUCACGUCUCAAUCAACUCAAUCCCCAGGGAAAGCCCUGGCUUACUCAACAGCUCGCAGUCAAG”, for which the binding signal (log2 fold change) was -0.0119. On to “GGUCACGUCUCAAUCAACUCACAAGAGGGGGGGAAAACCCCUUUGCCCUCAACUUCAACAGCUCGCAGUCAAG”, for which the binding signal (log2 fold change) was -0.0129.

On to “GGUCACGUCUCAAUCAACUCAUCGUCAGGAGUUUCCUCCUGUAAAUUCAACAGCUCGCAGUCAAG”, for which the binding signal (log2 fold change) was determined as 0.00895.

As for “GGUCACGUCUCAAUCAACUCAGUCCCAGGAGUUUACUCCUGUAUAUUCAACAGCUCGCAGUCAAG”, the binding signal (log2 fold change) was -0.00892. With “GGUCACGUCUCAAUCAACUCAACUUCCAGGGAAACCCCUGGCAAUCUCAACAGCUCGCAGUCAAG” the figure was -0.26; with “GGUCACGUCUCAAUCAACUCAUCUCCAGGAGUUUACUCCUGCUUACUCAACAGCUCGCAGUCAAG”, -0.111; with “GGUCACGUCUCAAUCAACUCUUCUUCCAGGGAAACCCCUGGUAAUUUCAACAGCUCGCAGUCAAG”, 0.191. With “GGUCACGUCUCAAUCAACUCUACUUCAGGAGUUUCCUCCUGCUAUUUCAACAGCUCGCAGUCAAG” the figure was 0.00994; with “GGUCACGUCUCAAUCAACUCCCAUGAGGGGGGGAAAACCCCUUUACCCUCCAUUUCAACAGCUCGCAGUCAAG”, 0.0842.

Regarding “GGUCACGUCUCAAUCAACUCUCACGAGGGGGGGAAAACCCCUUUACCCUCAUACUCAACAGCUCGCAGUCAAG”, the binding signal (log2 fold change) is 0.202.

On to “GGUCACGUCUCAAUCAACUCUUCCGAGGGGGGGAAAACCCCUUUACCCUCAUUAUCAACAGCUCGCAGUCAAG”, for which the binding signal (log2 fold change) was -0.222. Take “GGUCACGUCUCAAUCAACUCAUUUCCAGGAGUUUACUCCUGUAAUUUCAACAGCUCGCAGUCAAG”: the binding signal (log2 fold change) came out at 0.165. Regarding “GGUCACGUCUCAAUCAACUCAUCUUCAGGAGUUUUCUCCUGUUUUCUCAACAGCUCGCAGUCAAG”, the binding signal (log2 fold change) came out at 0.00207. “GGUCACGUCUCAAUCAACUCAUUUCCCAGGGAAAGCCCUGGCUAUUUCAACAGCUCGCAGUCAAG”: the binding signal (log2 fold change) is -0.0705. Regarding “GGUCACGUCUCAAUCAACUCUUUUCCAGGAGUUUCCUCCUGUUUAUUCAACAGCUCGCAGUCAAG”, the binding signal (log2 fold change) is -0.0297. With “GGUCACGUCUCAAUCAACUCUUUCUCAGGAGUUUACUCCUGCUAUUUCAACAGCUCGCAGUCAAG” the figure was 0.0481; with “GGUCACGUCUCAAUCAACUCCUUAGAGGGGGGGAAAACCCCUUUACCCUCGAAUUCAACAGCUCGCAGUCAAG”, -0.209.

In the case of “GGUCACGUCUCAAUCAACUCAUUUCCAGGAGUUUUCUCCUGCAUAGUCAACAGCUCGCAGUCAAG”, the binding signal (log2 fold change) worked out at 0.138. On to “GGUCACGUCUCAAUCAACUCAUCCUCAGGAGUUUUCUCCUGCAUUUUCAACAGCUCGCAGUCAAG”, for which the binding signal (log2 fold change) came out at 0.0528. On to “GGUCACGUCUCAAUCAACUCCUCUGAGGGGGGGAAAACCCCUUUACCCUCUAUUUCAACAGCUCGCAGUCAAG”, for which the binding signal (log2 fold change) is -0.49. Turning to “GGUCACGUCUCAAUCAACUCAUCCUCAGGAGUUUUCUCCUGCAAUGUCAACAGCUCGCAGUCAAG”, the binding signal (log2 fold change) came out at 0.197.

As to “GGUCACGUCUCAAUCAACUCUUUUCCCAGGGAAAUCCCUGGCAAUCUCAACAGCUCGCAGUCAAG”, the binding signal (log2 fold change) was determined as 0.00717.

For “GGUCACGUCUCAAUCAACUCAUCGCCAGGAGUUUCCUCCUGCAAAUUCAACAGCUCGCAGUCAAG”, the binding signal (log2 fold change) stood at 0.16.

Regarding “GGUCACGUCUCAAUCAACUCAUCUUCAGGAGUUUCCUCCUGCUUUUUCAACAGCUCGCAGUCAAG”, the binding signal (log2 fold change) was determined as 0.03. For the sequence “GGUCACGUCUCAAUCAACUCAAUCCCAGGAGUUUUCUCCUGUUUUCUCAACAGCUCGCAGUCAAG”, the binding signal (log2 fold change) amounted to 0.21. With “GGUCACGUCUCAAUCAACUCAAUCCCAGGAGUUUUCUCCUGCUUACUCAACAGCUCGCAGUCAAG”, the binding signal (log2 fold change) stood at 0.0488. With “GGUCACGUCUCAAUCAACUCAAUUUCAGGAGUUUCCUCCUGCUUAUUCAACAGCUCGCAGUCAAG”, the binding signal (log2 fold change) came to 0.0437.
